This test concerns the target PmMOR (P. major multisubstrate oxido-reductase) (Plantago major, UniProt D6N9X1, V150M). In words: crystal structure. Particulars: ternary complex with NADP+, 2.56 Å; ligand density of poor quality.

The structures appear in SMILES notation.

On to `CC(=O)[C@H]1CC[C@H]2[C@@H]3CCC4=CC(=O)CC[C@]4(C)[C@H]3CC[C@]12C` [progesterone], for which the crystal structure entry is “we co-crystallized PmMOR^V150M with progesterone and NADP^+”.
